# Measured values: the supplement of paper PMC9135407
# Values joined by “and” are separate entries in the source; they are usually repeats but may differ in a detail not shown here. Identical values can stand only once. Counter-ions that a name gives are not always drawn. In all, about 5,800 compounds went through this assay and about 620 (11%) showed activity.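 The calls were made as follows: active = score above a cut-off or among the top three wells of a plate; in these data no inactive exceeds 0.85.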 The entries are a selection whose mix differs from that of the whole data set.
# Tested on: primary human hepatic stellate cells (donor 1)
# Assay: scaled lipid accumulation score (0 = DMSO-like, 1 = nortriptyline-like); higher = stronger HSC inactivation (lipid re-accumulation), active = hit call of the paper
# Settings: 48 h
# [1] = library stock concentration: 3.33 mM
# [2] = library stock concentration: 10 mM
# [3] = library stock concentration: 1 mM
# [4] = library stock concentration: 80 uM
# [5] = library stock concentration: 400 uM
# [6] = library stock concentration: 2 mM
# [7] = library stock concentration: 5.3 mM
# [8] = library stock concentration: 4.4 mM
# [9] = library stock concentration: 13.5 mM
# [10] = library stock concentration: 2.3 mM
smiles,measurement,setting,value
Cc1c(-c2ccccc2)oc2c(C(=O)OCCN3CCCCC3)cccc2c1=O [Flavoxate hydrochloride],scaled lipid accumulation score,,inactive: ≤ 0
Cc1c(-c2ccccc2)oc2c(C(=O)OCCN3CCCCC3)cccc2c1=O [Flavoxate HCl],scaled lipid accumulation score,[1],inactive: ≤ 0
same,scaled lipid accumulation score,[2],inactive: ≤ -0.001
CCCCCC(O)/C=C/C=O (stereo not drawn) [4-hydroxy Nonenal],scaled lipid accumulation score,[3],inactive: ≤ 0
CN(N=O)C(=O)N[C@@H]1[C@@H](O)[C@H](O)[C@@H](CO)O[C@@H]1O [Streptozosin],scaled lipid accumulation score,library stock concentration: 7.5 mM,inactive: ≤ 0
same,scaled lipid accumulation score,[2],inactive: 0.029
Cc1ccc(-c2nn(C(C)(C)C)c3ncnc(N)c23)cc1,scaled lipid accumulation score,[4],inactive: 0.022
same,scaled lipid accumulation score,[5],inactive: ≤ 0
same,scaled lipid accumulation score,[6],inactive: ≤ 0
same,scaled lipid accumulation score,[1],inactive: 0.002
same,scaled lipid accumulation score,[2],inactive: 0.21 and inactive: ≤ 0
NCCCC(=O)O [Gamma-aminobutyric acid],scaled lipid accumulation score,[2],inactive: ≤ 0
CCCCCCOC(=O)NC(=N)c1ccc(NCc2nc3cc(C(=O)N(CCC(=O)OCC)c4ccccn4)ccc3n2C)cc1 [Dabigatran Etexilate],scaled lipid accumulation score,[1],inactive: 0.081
same,scaled lipid accumulation score,[2],inactive: 0.218
COc1ccc(O)cc1 [Mequinol],scaled lipid accumulation score,[1],inactive: ≤ 0
same,scaled lipid accumulation score,[2],inactive: ≤ -0.001
COc1ccc(O)cc1,scaled lipid accumulation score,[2],inactive: ≤ 0
CC(C)C[C@@H](C(=O)N[C@H](C(=O)OC1CCCC1)c1ccccc1)[C@H](O)C(=O)NO,scaled lipid accumulation score,[2],inactive: 0.007
CC(=O)NC(Cc1ccccc1)C(=O)O (stereo not drawn),scaled lipid accumulation score,[2],inactive: 0.009
CCCCCCCCCCCCCCCCCCCCCCO [Docosanol],scaled lipid accumulation score,library stock concentration: 6.1 mM,inactive: ≤ 0
CN1CCN(C2Cc3ccccc3Sc3ccc(Cl)cc32)CC1 (stereo not drawn),scaled lipid accumulation score,[2],inactive: 0.378
NS(=O)(=O)c1cc2c(cc1Cl)NC(C(Cl)Cl)NS2(=O)=O (stereo not drawn) [Trichlormethiazide],scaled lipid accumulation score,,inactive: ≤ 0
same,scaled lipid accumulation score,[1],inactive: 0.024
same,scaled lipid accumulation score,[7],inactive: ≤ 0
same,scaled lipid accumulation score,[2],inactive: ≤ 0
NS(=O)(=O)c1cc2c(cc1Cl)NC(C(Cl)Cl)NS2(=O)=O (stereo not drawn) [Trichloromethiazide],scaled lipid accumulation score,[7],inactive: ≤ 0
CN1C(=O)C(c2c[nH]c3ccccc23)=C(c2c[nH]c3ccccc23)C1=O [Bisindolylmaleimide V],scaled lipid accumulation score,[3],inactive: ≤ 0
same,scaled lipid accumulation score,[1],inactive: ≤ 0
CN[C@@H]1[C@H](O)[C@H](NC)[C@H]2O[C@@]3(O)C(=O)C[C@@H](C)O[C@H]3O[C@@H]2[C@H]1O [Spectinomycin],scaled lipid accumulation score,library stock concentration: 6 mM,inactive: ≤ -0.006
CN[C@@H]1[C@H](O)[C@H](NC)[C@H]2O[C@@]3(O)C(=O)C[C@@H](C)O[C@H]3O[C@@H]2[C@H]1O,scaled lipid accumulation score,[2],inactive: ≤ 0
CN[C@@H]1[C@H](O)[C@H](NC)[C@H]2O[C@@]3(O)C(=O)C[C@@H](C)O[C@H]3O[C@@H]2[C@H]1O [Spectinomycin dihydrochloride],scaled lipid accumulation score,,inactive: ≤ 0
CN[C@@H]1[C@H](O)[C@H](NC)[C@H]2O[C@@]3(O)C(=O)C[C@@H](C)O[C@H]3O[C@@H]2[C@H]1O [Spectinomycin hydrochloride],scaled lipid accumulation score,library stock concentration: 4.9 mM,inactive: ≤ 0
same,scaled lipid accumulation score,[2],inactive: ≤ 0
CN[C@@H]1[C@H](O)[C@H](NC)[C@H]2O[C@@]3(O)C(=O)C[C@@H](C)O[C@H]3O[C@@H]2[C@H]1O [Spectinomycin HCl],scaled lipid accumulation score,[1],inactive: ≤ 0
same,scaled lipid accumulation score,[2],inactive: ≤ 0
CN[C@H](CC(=O)O)C(=O)O [N-Methyl-D-aspartic acid],scaled lipid accumulation score,[2],inactive: 0.04
CN[C@H](CC(=O)O)C(=O)O [N-methyl-d-aspartic acid (nmda)],scaled lipid accumulation score,[2],inactive: ≤ -0.027
NC(=O)c1cnc(N[C@@H]2CCCC[C@@H]2N)nc1Nc1cccc(-n2nccn2)c1,scaled lipid accumulation score,[4],inactive: ≤ 0
same,scaled lipid accumulation score,[5],inactive: 0.015
same,scaled lipid accumulation score,[6],inactive: 0.218
same,scaled lipid accumulation score,[1],inactive: 0.214
same,scaled lipid accumulation score,[2],inactive: 0.215 and inactive: 0.449
Cc1onc(-c2ccccc2Cl)c1C(=O)N[C@@H]1C(=O)N2[C@@H]1SC(C)(C)[C@@H]2C(=O)O [Cloxacillin sodium],scaled lipid accumulation score,[8],inactive: 0.008
same,scaled lipid accumulation score,[2],inactive: ≤ 0
Cc1onc(-c2ccccc2Cl)c1C(=O)N[C@@H]1C(=O)N2[C@@H]1SC(C)(C)[C@@H]2C(=O)O [Cloxacillin sodium salt],scaled lipid accumulation score,,inactive: 0.071
Cc1onc(-c2ccccc2Cl)c1C(=O)N[C@@H]1C(=O)N2[C@@H]1SC(C)(C)[C@@H]2C(=O)O [Cloxacillin Sodium],scaled lipid accumulation score,[1],inactive: ≤ 0
same,scaled lipid accumulation score,[2],inactive: 0.009
CN(CCO)CC(O)Cn1cnc2c1c(=O)n(C)c(=O)n2C (stereo not drawn),scaled lipid accumulation score,[2],inactive: ≤ 0
COc1ccc(Cn2ccc3ccc(C(=O)NO)cc32)cc1,scaled lipid accumulation score,[1],inactive: ≤ 0
same,scaled lipid accumulation score,[2],inactive: ≤ 0
CCCn1cc(-c2ccnc(NC3CCN(Cc4cccnc4)CC3)n2)c(C)n1,scaled lipid accumulation score,[2],active: 0.91
"Cn1c(=O)c2[nH]c(-c3ccccc3)nc2n(C)c1=O [1,3-Dimethyl-8-phenylxanthine]",scaled lipid accumulation score,[2],inactive: ≤ -0.055
COC(=O)C1=CO[C@@H](O[C@@H]2O[C@H](CO)[C@@H](O)[C@H](O)[C@H]2O)[C@@H]2C(CO)=CC[C@H]12 [Geniposide],scaled lipid accumulation score,[1],inactive: ≤ 0
same,scaled lipid accumulation score,[2],inactive: 0.125
CC(C)Nc1cccnc1N1CCN(C(=O)c2cc3cc(NS(C)(=O)=O)ccc3[nH]2)CC1 [Delavirdine mesylate],scaled lipid accumulation score,[8],inactive: ≤ -0.006
COc1cccc2c1C(=O)c1c(O)c3c(c(O)c1C2=O)C[C@@](O)(C(=O)CO)C[C@@H]3O[C@H]1C[C@H](N)[C@@H](O)[C@H](C)O1,scaled lipid accumulation score,[2],inactive: 0.36
COc1cccc2c1C(=O)c1c(O)c3c(c(O)c1C2=O)C[C@@](O)(C(=O)CO)C[C@@H]3O[C@H]1C[C@H](N)[C@@H](O)[C@H](C)O1 [Epirubicin HCl],scaled lipid accumulation score,[1],inactive: ≤ 0
same,scaled lipid accumulation score,[2],inactive: ≤ 0
C/C=C/c1ccc(OC)cc1 [Anethole],scaled lipid accumulation score,[2],inactive: 0.104
same,scaled lipid accumulation score,[9],inactive: ≤ 0
"C/C=C/c1ccc(OC)cc1 [Anethole, trans-]",scaled lipid accumulation score,[9],inactive: ≤ -0.006
CC(=O)O/N=C1/C(c2c(O)[nH]c3cc(Br)ccc23)=Nc2ccccc21 [GSK-3 Inhibitor X],scaled lipid accumulation score,[1],inactive: ≤ 0
C=C(C)[C@@H]1CC[C@]2(CO)CC[C@]3(C)[C@H](CC[C@@H]4[C@@]5(C)CC[C@H](O)C(C)(C)[C@@H]5CC[C@]43C)[C@@H]12 [Betulin],scaled lipid accumulation score,,inactive: ≤ 0
"CCCCC(C)(C)[C@H](O)/C=C/[C@@H]1[C@@H](C/C=C\CCCC(=O)O)[C@H](O)C[C@H]1O [16,16-dimethyl Prostaglandin F2.beta.]",scaled lipid accumulation score,[3],inactive: ≤ 0
N=C(N)c1ccc(N)cc1 [4-Aminobenzamidine dihydrochloride],scaled lipid accumulation score,[2],inactive: ≤ 0
CCCN(CCC)CCc1cccc2c1CC(=O)N2 [Ropinirole],scaled lipid accumulation score,library stock concentration: 7.7 mM,inactive: ≤ 0
CCCN(CCC)CCc1cccc2c1CC(=O)N2 [Ropinirole HCl],scaled lipid accumulation score,[1],inactive: 0.02
same,scaled lipid accumulation score,[2],inactive: ≤ 0
CCCN(CCC)CCc1cccc2c1CC(=O)N2 [Ropinirole hydrochloride],scaled lipid accumulation score,[2],inactive: ≤ 0
O=C(O)CCCCCCC1C(=O)N(Cc2ccccc2)C(=O)N1NCC(O)C1CCCCC1 (stereo not drawn),scaled lipid accumulation score,[3],inactive: ≤ 0
CC(=O)O[C@H]1C(=O)[C@@]2(C)[C@H]([C@H](OC(=O)c3ccccc3)[C@]3(O)C[C@H](OC(=O)[C@H](O)[C@@H](NC(=O)c4ccccc4)c4ccccc4)C(C)=C1C3(C)C)[C@]1(OC(C)=O)CO[C@@H]1C[C@@H]2O [Taxol = Paclitaxel],scaled lipid accumulation score,library stock concentration: 5.8 mM,inactive: ≤ -0.012
CC(=O)O[C@H]1C(=O)[C@@]2(C)[C@H]([C@H](OC(=O)c3ccccc3)[C@]3(O)C[C@H](OC(=O)[C@H](O)[C@@H](NC(=O)c4ccccc4)c4ccccc4)C(C)=C1C3(C)C)[C@]1(OC(C)=O)CO[C@@H]1C[C@@H]2O [Paclitaxel],scaled lipid accumulation score,,inactive: ≤ 0
same,scaled lipid accumulation score,[10],inactive: ≤ 0
same,scaled lipid accumulation score,[1],inactive: ≤ 0
same,scaled lipid accumulation score,[2],inactive: ≤ 0 and inactive: 0.124
CC(=O)O[C@H]1C(=O)[C@@]2(C)[C@H]([C@H](OC(=O)c3ccccc3)[C@]3(O)C[C@H](OC(=O)[C@H](O)[C@@H](NC(=O)c4ccccc4)c4ccccc4)C(C)=C1C3(C)C)[C@]1(OC(C)=O)CO[C@@H]1C[C@@H]2O [Taxol],scaled lipid accumulation score,[10],inactive: ≤ 0
same,scaled lipid accumulation score,[2],inactive: ≤ -0.006
NCCCCCc1c[nH]cn1 [Impentamine dihydrobromide],scaled lipid accumulation score,[2],inactive: ≤ -0.006
Cc1[nH]c(=O)c(C#N)cc1-c1ccc2nccn2c1 [Olprinone hydrochloride],scaled lipid accumulation score,[2],inactive: ≤ 0
NC(=O)c1cccc(-c2cccc(OC(=O)NC3CCCCC3)c2)c1,scaled lipid accumulation score,[3],inactive: ≤ 0
same,scaled lipid accumulation score,[1],inactive: ≤ 0
same,scaled lipid accumulation score,[2],inactive: 0.034
CN1CCCC1CCOC(C)(c1ccccc1)c1ccc(Cl)cc1.O=C(O)/C=C/C(=O)O (stereo not drawn) [Clemastine fumarate],scaled lipid accumulation score,[2],active: 0.942
CN(C(Cc1ccc(OS(=O)(=O)c2cccc3cnccc23)cc1)C(=O)N1CCN(c2ccccc2)CC1)S(=O)(=O)c1cccc2cnccc12 (stereo not drawn),scaled lipid accumulation score,[1],inactive: ≤ -0.009
same,scaled lipid accumulation score,[2],inactive: 0.138
CCN(CC)CCOc1ccc(C(=C(Cl)c2ccccc2)c2ccccc2)cc1.O=C(O)CC(O)(CC(=O)O)C(=O)O [Clomid],scaled lipid accumulation score,[2],active: 0.963
COc1cc(OC2CCN(C)CC2)ccc1Nc1ncc2c(n1)n(C1CCCC1)c(=O)n2C,scaled lipid accumulation score,[2],active: 1.06
Cn1cnc2c(F)c(Nc3ccc(Br)cc3F)c(C(=O)NOCCO)cc21,scaled lipid accumulation score,[1],inactive: ≤ 0
same,scaled lipid accumulation score,[2],inactive: ≤ -0.001
C#Cc1cccc(Nc2ncnc3cc(OCCOC)c(OCCO)cc23)c1,scaled lipid accumulation score,[1],inactive: ≤ 0
same,scaled lipid accumulation score,[2],inactive: ≤ 0
"O=Nc1ccc2oc(=O)ccc2c1 [6-Nitroso-1,2-benzopyrone]",scaled lipid accumulation score,[2],active: 0.9
CC(C)(C)CC(C)(C)c1cc(Cc2cc(C(C)(C)CC(C)(C)C)cc(-n3nc4ccccc4n3)c2O)c(O)c(-n2nc3ccccc3n2)c1,scaled lipid accumulation score,[2],inactive: ≤ 0
